Experimental data published in the supplement of paper PMC12632987.
Whole data set: some 1,800 sequences, median “median log2 fold change of GCK-ALFA target abundance (FLAG IP / Myc IP barcode read proportion)” near 0.14, cut for the lowest 2% near -0.84. Some of the results follow.

T1: TRAF2, Q12933
T1 chain: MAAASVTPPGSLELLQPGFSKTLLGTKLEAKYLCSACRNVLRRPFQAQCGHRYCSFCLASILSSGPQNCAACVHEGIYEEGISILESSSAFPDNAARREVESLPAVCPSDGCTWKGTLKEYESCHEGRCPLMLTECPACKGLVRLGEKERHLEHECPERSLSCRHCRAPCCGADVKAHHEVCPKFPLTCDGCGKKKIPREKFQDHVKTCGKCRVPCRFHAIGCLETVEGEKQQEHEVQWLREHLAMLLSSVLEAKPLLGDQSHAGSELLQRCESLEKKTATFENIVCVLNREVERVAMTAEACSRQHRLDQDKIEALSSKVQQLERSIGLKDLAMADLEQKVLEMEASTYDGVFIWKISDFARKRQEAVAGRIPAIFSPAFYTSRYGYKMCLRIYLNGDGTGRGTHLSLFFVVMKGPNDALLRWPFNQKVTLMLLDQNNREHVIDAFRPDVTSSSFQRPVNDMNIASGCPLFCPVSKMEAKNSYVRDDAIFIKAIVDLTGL

B1: traf2_out_20_3_2266 (protein)
chain: EELLKKYEEELEKAKKILEEIIKESDPETAKKLEEALKLLEESKKVSPTDALVLLGEAKRIVRELAEEARKAGNEELAAKLEEAADEINKAMGYLLKIIE
B2: traf2_out_6_156_2439 (protein)
chain: SVDDILAETEAELTALIKALAAASPERKIFYINRIAGTVYRALQRLREGGASLEELRAFAERVRAHVEAALKEAGLDEETRNLVLSSLDAVFDVALASAA
B3: traf2_out_11_155_669 (protein)
chain: EEKQKLNNELVNELTKVSDELKEKVIKILKEAAEKHPEHKEEIEKVIESSKTLSGTSFARKAAQLFKELGLEEEAKKVEELLEEAQKKMNEIYKKYEKKL
B4: traf2_out_19_16_1992 (protein)
chain: SKEEAKELKEKMKKYLEEALKLAEETVARLDELSREELMDKLVEISELMRKAKELLEKYLELNKDDEEERKEVEEEFEEKEERIQRLMTIIVDRILELLK
B5: traf2_out_17_178_1725 (protein)
chain: SKEEILKKISELADKRFDVNHAAMDELRAIAEAEGVLTPELAARLDEVHRTSNLYALEEVADELIARTASADRVAALREKTSAELRELDKKIQEAVEKLE
B6: traf2_out_13_95_1086 (protein)
chain: SKEVNEKIMEIADEMMEQILATLDALAKQVAGDPELAAAVAEARRLAETRGVNEAIHKLRELAKANPEHAELLNAAIAEIEAIKKEASKKISELLKEEEE
B7: traf2_out_13_95_1113 (protein)
chain: SKELAEKIMEIADEALDKANALLDDLEAQIKASGKLKPEVEAALAAAKKSTISTAIHTLQELAKEYPEFKELFDATIAQLEEIRREAGRKVAELIKEEKE
B8: traf2_out_11_169_800 (protein)
chain: EEAEKNRKINDKALELNDEAKKKLLEHALKLAKEAGLDVEEVKKIYEKNKNRSLSYVASELIRYFKEKGKEEEAKAVLAKYEELKDEINKEMTKFIKELE
B9: traf2_out_1_27_1024 (protein)
chain: SDEELQKLIKETQKKIAEVNLEEAKKIVKEALKEAYKMGLSDAMMLARTLIASQLDVERAKAIAEAAIEAFKELGVPQEKIDELKKVAESILKLIEKQKK
B10: traf2_out_16_104_1374 (protein)
chain: AAALEAELEAARAELEAALEELGRAMNELYLKYQRASPEERVRLSDVLVDASAARRRALEVLEEVDREVAAGGDLRELIERLRAALAEVRAALARVRAAL
B11: traf2_out_6_3_2504 (protein)
chain: SDEEERKRNEEALELASEMSFETLKRAADTTLERLKKAVADPNASESDVLALASALNTILEIIRKNAEKNPEKKEEAEKYIEEREKELEKLLKEWEEKRK
B12: traf2_out_3_89_2306 (protein)
chain: SSAREKTIEEMRKRMEAYIKGFEKSAKYVMKEMLKDGMSLETIEGVLKAARTALLEELRETMKEKGLSEEEIEKLLKEAKEKLDKVVKEVVEEAKKEREK
B13: traf2_out_13_95_1210 (protein)
chain: EKEKTEKLREFTNEIADKLIDFVEKKAEEIEKATGNKEYKEDILSALRRYGVRAAVALIKKYAEEDPEYAEVYKKAAEEAEKKIREAGREAAKKDKEIEE
B14: traf2_out_17_162_1651 (protein)
chain: SALEEEKKRLEEELKRLREETKRLREKLKKIEEYSKEELSDLIVEASEVKRRALEALQEIDKLEPLLDPEEAERLKKELEEIIKEAQRIAQEFLDEYEKK
B15: traf2_out_6_3_2527 (protein)
chain: SHMSLLEDARTVLENMGITTAEQLLRLVKAEVNAVKKLVSRKDVNEADLAGARSVLNLTRAMVEVAAEELPSVTPEQVAEALALIDEAEKLVEEKEKELK
B16: traf2_out_17_178_1710 (protein)
chain: SKAEARATISAATDRMIDLAEAAAAELLAIAEAEGDLSPEELAELRRARRLGSARTTLALMRRAIPKLKSAERVQALLDRFEAEYAALAKEIAAALEKYE
B17: traf2_out_17_178_1657 (protein)
chain: NKEEARKKISEATDRLIDLTRATAARLLALLRADGIASPEELAALERARRLGSATTVRALLERAVPRSPRHAEVAALLDAFRAESGRLAKEIAAAYEEYE
B18: traf2_out_16_171_1428 (protein)
chain: LPPEEQARIRAEFDALARRLRERLELIRESLPAVMKELNISKEQALKSLEARAEELLAEAERFVAEHAPKVDEETRAYLEARLAELRAHAKAVIEEFRKE
B19: traf2_out_9_17_2617 (protein)
chain: SPARAALEEALLAAVEAVTAELIAEGWITPEQAQKIIDHARRLLAEGASPERVRVETIGTLASILLVDSKQSVQTANRAASRLDRALRAAEAAVAAAAAA

Target: T1, TRAF2, Q12933
Assay: median log2 fold change of GCK-ALFA target abundance (FLAG IP / Myc IP barcode read proportion) (log2 ratio); each designed protein is fused to an ALFA-tag nanobody in HEK293 cells to bring the named protein to FLAG-tagged glucokinase (GCK); Myc marks an untargeted standard; higher = target protein stabilised (more abundant)
Conditions: target protein: 3xFLAG-MCP-GCK-ALFA reporter; HEK293 landing pad (RPLP)
Procedure, shortened: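 Binders fused to an ALFA nanobody were recombined as a library into HEK293 landing-pad cells, which were induced with 2 μg mL^−1 doxycycline and then transfected to express a FLAG-tagged target and a Myc-tagged standard. After 48 h, circular RNA barcodes recovered by anti-FLAG and anti-Myc immunoprecipitation of lysates were reverse transcribed, amplified and sequenced. Each binder's target abundance is the median log2 ratio of FLAG to Myc barcode read proportions, from barcodes present at ≥10^−7 in both replicates, binders carrying ≥3 barcodes per replicate, a 10^−6 pseudocount and pooled replicates.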

Row | Binder | median log2 fold change
1 | B1 | 0.464
2 | B2 | 0.129
3 | B3 | 0.305
4 | B4 | -0.0614
5 | B5 | 0.348
6 | B6 | -0.0311
7 | B7 | 0.0328
8 | B8 | -0.104
9 | B9 | 0.141
10 | B10 | 0.173
11 | B11 | 0.197
12 | B12 | -0.595
13 | B13 | 0.281
14 | B14 | 0.169
15 | B15 | -0.418
16 | B16 | -0.136
17 | B17 | -0.13
18 | B18 | 0.292
19 | B19 | -0.658
